Values joined by “and” are separate entries in the source; they are usually repeats but may differ in a detail not shown here. Identical values can stand only once. This continues a long series; more values of the same kind are listed elsewhere. Toxic doses and inconclusive results are not listed. Rule for the calls: active = survival T/C of 150% or more; inactive = T/C below 125% in these data.
Test system: P388 leukemia ip, CD2F1 mice, survival T/C
Assay: NCI In Vivo Anticancer Drug Screen. Data for tumor model P388 Leukemia (intraperitoneal) in CD2F1 (CDF1) mice
Details: endpoint: median survival time, higher = longer survival
Procedure: The antitumor activity of compounds was measured in mice bearing transplantable tumors. Survival or tumor size were measured and the results are expressed as the measurement made in the treated group (T) divided by the measurement made in the vehicle treated control group (C). The tumor model used in this assay is P388 Leukemia (intraperitoneal) in CD2F1 (CDF1) mice

Measured: T/C

COc1cc(NCc2ccc3nc(N)nc(N)c3c2C)cc(OC)c1OC
active: dose: 15.0 mg/kg/injection, schedule: Q03HX024 (ip), vehicle: water 201 % of control | dose: 30.0 mg/kg/injection, schedule: Q03HX024 (ip), vehicle: water 218 % of control | dose: 67.1 mg/kg/injection, schedule: Q01DX009 (ip), vehicle: water 189 % of control
inactive: dose: 60.0 mg/kg/injection, schedule: Q01DX009 (oral), vehicle: water 95 % of control | dose: 960.0 mg/kg/injection, schedule: Q01DX001 (oral), vehicle: water 91 % of control

COc1cccc2c1C(=O)c1c(O)c3c(c(O)c1C2=O)CC(O)(C(=O)CO)CC3OC1CC(N)C(O)C(C)O1 (configuration not stated)
active: dose: 0.38 mg/kg/injection, schedule: Q01DX009 (ip), vehicle: water 155 % of control and 167 % of control | dose: 0.75 mg/kg/injection, schedule: Q01DX009 (ip), vehicle: water 183 % of control and 193 % of control | dose: 1.5 mg/kg/injection, schedule: Q01DX009 (ip), vehicle: water 174 % of control and 201 % of control | dose: 9.0 mg/kg/injection, schedule: Q04DX003 (ip), vehicle: water 154 % of control | dose: 88.0 mg/kg/injection, schedule: Q04DX003 (ip), vehicle: water 192 % of control | dose: 128.0 mg/kg/injection, schedule: Q04DX003 (ip), vehicle: water 168 % of control | dose: 133.0 mg/kg/injection, schedule: Q04DX003 (ip), vehicle: water 283 % of control | dose: 192.0 mg/kg/injection, schedule: Q04DX003 (ip), vehicle: water 221 % of control
inactive: dose: 0.13 mg/kg/injection, schedule: Q04DX003 (ip), vehicle: distilled water + Tween-80 = 110 % of control | dose: 0.25 mg/kg/injection, schedule: Q04DX003 (ip), vehicle: water 109 % of control and 107 % of control | dose: 0.5 mg/kg/injection, schedule: Q04DX003 (ip), vehicle: water 105 % of control and 113 % of control | dose: 1.0 mg/kg/injection, schedule: Q04DX003 (ip), vehicle: saline 105 % of control and 108 % of control | dose: 1.13 mg/kg/injection, schedule: Q04DX003 (ip), vehicle: water 110 % of control and 111 % of control | dose: 2.0 mg/kg/injection, schedule: Q04DX003 (ip), vehicle: saline 100 % of control | dose: 2.0 mg/kg/injection, schedule: Q04DX003 (ip), vehicle: water 122 % of control | dose: 2.25 mg/kg/injection, schedule: Q04DX003 (ip), vehicle: water 118 % of control | dose: 4.0 mg/kg/injection, schedule: Q04DX003 (ip), vehicle: distilled water + Tween-80 = 105 % of control | dose: 4.5 mg/kg/injection, schedule: Q04DX003 (ip), vehicle: water 111 % of control | dose: 8.0 mg/kg/injection, schedule: Q04DX003 (ip), vehicle: saline 108 % of control | dose: 8.0 mg/kg/injection, schedule: Q04DX003 (ip), vehicle: water 99 % of control [middle of 4 runs] | dose: 16.0 mg/kg/injection, schedule: Q04DX003 (ip), vehicle: saline 120 % of control and 95 % of control | dose: 16.0 mg/kg/injection, schedule: Q04DX003 (ip), vehicle: water 100 % of control | dose: 22.0 mg/kg/injection, schedule: Q04DX003 (ip), vehicle: water 117 % of control and 122 % of control | dose: 32.0 mg/kg/injection, schedule: Q04DX003 (ip), vehicle: water 110 % of control | dose: 36.0 mg/kg/injection, schedule: Q04DX003 (ip), vehicle: water 102 % of control and 93 % of control | dose: 75.0 mg/kg/injection, schedule: Q04DX003 (ip), vehicle: water 104 % of control | dose: 150.0 mg/kg/injection, schedule: Q04DX003 (ip), vehicle: water 98 % of control

From PubChem BioAssay AID330 (DTP/NCI, 2004)
